One assay deals with T1, Mouse CD47 (mouse).
T1 sequence (looked up): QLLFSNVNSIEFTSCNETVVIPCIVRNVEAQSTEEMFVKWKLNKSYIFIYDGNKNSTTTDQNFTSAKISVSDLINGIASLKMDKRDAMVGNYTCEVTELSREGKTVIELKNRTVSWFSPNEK
In words: SPR. For orientation: In SPR one partner is held on a chip, and binding of the other changes the refractive index at the surface.

The next assay has as its target Human CD47 (human). In words: SPR.

B1: FH-SIRPα HV nanocage (self-assembled fusion of human ferritin heavy chain, linker peptide and SIRPα high-affinity variant) (other)
chain: [about 200 residues not written out]KESGSVSSEQLAQFRSLDEEELQIIQPDKSVLVAAGETATLRCTITSLFPVGPIQWFRGAGPGRVLIYNQRQGPFPRVTTVSDTTKRNNMDFSIRIGNITPADAGTYYCIKFRKGSPDDVEFKSGAGTELSVRAKP
notes: Expressed in E. coli from a pT7-7 vector comprising a His tag; also called FH-SIRPα nanocage; ferritin-SIRPα fusion nanocage
Consider B1, for which, in the assay with Mouse CD47, binding was characterised by a dissociation constant (Kd) of 0.37 nM, the koff was determined as 0.00041 s⁻¹ and the kon was determined as 1.1e+06 M⁻¹ s⁻¹. In the assay with Human CD47, this molecule showed a dissociation constant Kd of 0.048 pM, a dissociation rate constant (koff) of 2.4e-07 s⁻¹ and a kon of 5e+06 M⁻¹ s⁻¹.

Usually Kd stands for the free concentration of one partner at which half of the binding sites on the other are occupied at equilibrium, for simple one-to-one binding. Lower therefore signals a tighter complex. What is called koff is the first-order rate constant of dissociation. A lower koff goes with a long-lived complex. As a reminder, the kon is the rate constant with which the complex forms. Higher therefore signals fast association.
